About 160 (15%) of roughly 1,100 compounds were called active. Inconclusive means that the source gave no clear call. Such entries were picked first, then a sample of the others. The call rests on the fitted dose curve; in most records, active means well fitted inhibition curve with a large enough effect; inconclusive means small, poorly fitted or top-dose-only effect; inactive means no such curve, though single readings can be large or run the other way. Potencies of inconclusive entries are doubtful fits and often do not repeat.
target: ATP-dependent DNA helicase Q1 (Homo sapiens) (UniProt P46063); test: Confirmation qHTS Assay for Inhibitors of RecQ-Like Dna Helicase 1 (RECQ1) - Round 2 Cherry Picks; conditions: recombinant RECQ1 DNA unwinding, red fluorescence; series mostly up to 119 µM; activity, negative = inhibition: at the top concentration; further: nearly all actives have a fitted effect of over 50% in size
UniProt P46063, sequence (P46063 whole entry, looked up): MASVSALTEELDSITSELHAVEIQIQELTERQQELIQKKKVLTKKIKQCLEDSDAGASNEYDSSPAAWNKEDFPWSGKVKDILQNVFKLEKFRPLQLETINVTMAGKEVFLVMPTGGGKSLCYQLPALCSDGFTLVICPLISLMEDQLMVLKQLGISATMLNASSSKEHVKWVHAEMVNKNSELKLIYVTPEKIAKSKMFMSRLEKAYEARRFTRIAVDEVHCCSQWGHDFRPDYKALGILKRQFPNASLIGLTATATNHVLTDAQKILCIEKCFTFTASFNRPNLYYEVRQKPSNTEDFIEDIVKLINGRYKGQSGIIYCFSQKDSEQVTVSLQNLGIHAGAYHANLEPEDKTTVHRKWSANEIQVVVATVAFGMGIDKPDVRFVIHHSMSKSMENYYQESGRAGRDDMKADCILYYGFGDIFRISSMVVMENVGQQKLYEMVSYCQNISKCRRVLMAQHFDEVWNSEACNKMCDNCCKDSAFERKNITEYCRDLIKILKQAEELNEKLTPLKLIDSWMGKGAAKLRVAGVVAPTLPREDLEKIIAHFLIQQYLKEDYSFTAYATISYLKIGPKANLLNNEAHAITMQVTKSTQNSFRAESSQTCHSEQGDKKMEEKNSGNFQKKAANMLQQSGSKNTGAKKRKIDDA
In short: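 RECQ1T1 (50 nM) was preincubated 15 min at room temperature with compounds in Tris pH 8.0 buffer with 2.5 ug/ml poly(dI-dC). Unwinding of 200 nM TAMRA/BHQ-2 forked duplex with 2 mM ATP was read twice, 2 h apart, normalized to enzyme-free and DMSO controls.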
On the % scale 0 is the no-effect control and ±100 the full control effect; potency means the concentration at half of the fitted maximal effect; tags describe the fitted curve by direction and shape.

Q: For `NC(=O)c1ccc(-n2nnnc2SCC(=O)c2ccc(O)c(O)c2)cc1`, which Potency is on record?
A: The Potency was inconclusive: 14.1 µM [inhibitor, partial curve].

Q: Which Potency does the source give for `CN1/C(=C\C(=S)NC(=O)c2ccccc2Cl)C(C)(C)c2ccccc21` here?
A: Its Potency is inconclusive: 31.6 µM [inhibitor, full curve].

Q: `O=C(CSc1nc(-c2ccc(F)cc2)cs1)NC(=O)NCc1ccco1` was tested. Which Potency did it give?
A: The Potency was inconclusive: 89.1 µM [inhibitor, partial curve, poor fit].

Q: How did the Potency turn out when `Cc1cnc(CNc2ncnc3ccc(-c4ccc(N(C)C)cc4)cc23)cn1` was run?
A: Its Potency is inconclusive: 50.1 µM [inhibitor, partial curve].

Q: `N#CC1=C(N)Oc2ccc3ccc(O)cc3c2C1c1ccsc1` (centres undefined) was tested. Which Potency did it give?
A: Its Potency is active: 50.1 µM.

Q: Which Potency does the source give for `CC(=O)Oc1ccc(C(=O)Nc2cccc(C(=O)c3cccc(NC(=O)c4ccc(OC(C)=O)cc4)c3)c2)cc1` here?
A: The Potency was inconclusive: 31.6 µM [inhibitor, partial curve].

Q: Which Potency does the source give for `CCn1c(SCC(=O)OC)nc2sc3c(c2c1=O)CCC3` here?
A: The Potency was inconclusive: 63.1 µM [inhibitor, partial curve, poor fit].

Q: With `COc1ccc(S(=O)(=O)NCCSCc2ccco2)cc1` as the molecule, how does the “activity, negative = inhibition” value read?
A: Its value is inactive: -15.1%.

Q: Which Potency does the source give for `COc1cccc(-n2c(SCc3cc(=O)oc4cc(O)c(O)cc34)nc3ccccc3c2=O)c1` here?
A: The Potency was active: 12.6 µM.

Q: `Cc1c(Cl)cccc1N=Cc1ccc([N+](=O)[O-])s1` was tested. Which Potency did it give?
A: Its Potency is inconclusive: 79.4 µM [inhibitor, partial curve].

Q: With `Cc1nc2c(ccc3nc(NC(=O)c4ccc5c(c4)OCCO5)sc32)s1` as the molecule, how does the Potency read?
A: The Potency was active: 44.7 µM.

Q: For `COc1cc(/C=C2\SC(N)=NC2=O)ccc1OCC(=O)Nc1ccc(C)cc1`, which Potency is on record?
A: Its Potency is inconclusive: 56.2 µM [inhibitor, partial curve, poor fit].

Q: With `Cc1cccc(N(C(=O)c2ccc(Cl)cc2)C2CS(=O)(=O)CC2OC(=O)c2ccc(Cl)cc2)c1` (centres undefined) as the molecule, how does the “activity, negative = inhibition” value read?
A: Its value is inactive: -11.3%.

Q: `Cc1ccc(/C=C/C(=O)NCc2ccccn2)o1` was tested. Which Potency did it give?
A: The Potency was active: 17.8 µM.

Q: `O=C(CSc1nnc(-c2ccco2)c(-c2ccco2)n1)Nc1ccccc1` was tested. Which “activity, negative = inhibition” value did it give?
A: Its value is inactive: -25.7%.

Q: Which “activity, negative = inhibition” value does the source give for `COCCn1c(N)c(C(=O)NCc2cccs2)c2nc3ccccc3nc21` here?
A: The value was inactive: -16.3%.

Q: With `O=C(/C=C/c1ccco1)Nc1sc2c(c1C(=O)O)CCC2` as the molecule, how does the Potency read?
A: Its Potency is inconclusive: 31.6 µM [inhibitor, partial curve, poor fit].

Q: Which Potency does the source give for `Cc1ccc(O)c(N=Cc2cc(Cc3ccccc3)cc([N+](=O)[O-])c2O)c1` here?
A: Its Potency is inconclusive: 56.2 µM [inhibitor, partial curve, poor fit].

Q: With `CCOC(=O)c1cc(-c2ccc(N3CCOCC3)cc2)nn1-c1ccccc1C(=O)O` as the molecule, how does the Potency read?
A: The Potency was inconclusive: 44.7 µM [inhibitor, partial curve].

Source: PubChem BioAssay AID504841 (National Center for Advancing Translational Sciences (NCATS), 2011)
